Assay results from publication PMC5578090, “Biological Evaluation of Uridine Derivatives of 2-Deoxy Sugars as Potential Antiviral Compounds against Influenza A Virus” (International Journal of Molecular Sciences, 2017).

Conditions: RP TLC, experimental

| Structure (SMILES) | RMw (chromatographic lipophilicity index) |
| --- | --- |
| CC(=O)O[C@H]1[C@H](C)O[C@H](OC[C@H]2O[C@@H](n3ccc(=O)[nH]c3=O)[C@@H]3OC(C)(C)O[C@@H]32)C[C@@H]1O[Si](C)(C)C(C)(C)C [Compound 1] | 5.83 |
| CC(=O)O[C@H]1[C@H](C)O[C@H](OC[C@H]2O[C@@H](n3ccc(=O)n(C(=O)c4ccccc4)c3=O)[C@@H]3OC(C)(C)O[C@@H]32)C[C@@H]1O[Si](C)(C)C(C)(C)C [Compound 2] | 6.74 |
| CC1(C)O[C@@H]2[C@H](O1)[C@@H](CO[C@@H]1C[C@@H](OCc3ccccc3)[C@H](OCc3ccccc3)[C@@H](COCc3ccccc3)O1)O[C@H]2n1ccc(=O)[nH]c1=O [Compound 3] | 6.40 |
| CC1(C)O[C@@H]2[C@H](O1)[C@@H](CO[C@@H]1C[C@@H](OCc3ccccc3)[C@H](OCc3ccccc3)[C@@H](COCc3ccccc3)O1)O[C@H]2n1ccc(=O)n(C(=O)c2ccccc2)c1=O [Compound 4] | 7.58 |
| CC1(C)O[C@@H]2[C@H](O1)[C@@H](CO[C@@H]1C[C@@H](OCc3ccccc3)[C@H](OCc3ccccc3)[C@@H](CO[Si](C)(C)C(C)(C)C)O1)O[C@H]2n1ccc(=O)[nH]c1=O [Compound 5] | 8.06 |
| CC(=O)OC[C@H]1OC(OC[C@H]2O[C@@H](n3ccc(=O)[nH]c3=O)[C@@H]3OC(C)(C)O[C@@H]32)C[C@@H](OC(C)=O)[C@@H]1OC(C)=O (some centres unmarked) [Compound 6] | 2.32 |
| CC1(C)O[C@@H]2[C@H](O1)[C@@H](CO[C@@H]1C[C@@H](O)[C@H](O)[C@@H](CO)O1)O[C@H]2n1ccc(=O)[nH]c1=O [Compound 7] | 0.19 |
| CC1(C)O[C@@H]2[C@H](O1)[C@@H](CO[C@@H]1C[C@@H](O)[C@H](O)[C@@H](CO)O1)O[C@H]2n1ccc(=O)n(Cc2ccccc2)c1=O [Compound 8] | 2.09 |
